The supplement of paper PMC12067230
Single values of this set are uncertain.

Test: amyloid nucleation score relative to library mode (yeast Sup35 reporter selection) (log enrichment difference); higher = more amyloid nucleation; sequences are the first 22 residues of the Bri2 peptide extended by up to 12 random residues
Conditions: random library (experiment): 1;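 active = nucleation score significantly above 0 at FDR 0.05; inactive = not significantly above 0 or absent from output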
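Further: [psi-pin-] Saccharomyces cerevisiae expressing SupN fusions, induced by 100 µM Cu2SO4, selected 7 d at 30 °C without adenine and uracil, scored by deep sequencing of output versus input.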

For EASNCFAIRHFENKFAVETLICCHTSVESASGCS, which amyloid nucleation score is on record?
Its amyloid nucleation score is 5.27.

For EASNCFAIRHFENKFAVETLICALYGCSWLSMAR, which amyloid nucleation score is on record?
The amyloid nucleation score was “inactive”.

Which amyloid nucleation score does the source give for EASNCFAIRHFENKFAVETLICFTVVVRERGPRN here?
The amyloid nucleation score was 3.88.

For EASNCFAIRHFENKFAVETLICLCCCDCWRSRPF, which amyloid nucleation score is on record?
The amyloid nucleation score was 8.43.

For EASNCFAIRHFENKFAVETLICRLMGLVAGEFQA, which amyloid nucleation score is on record?
Its amyloid nucleation score is “inactive”.

With EASNCFAIRHFENKFAVETLICVASSACGLMCP as the sequence, how does the amyloid nucleation score read?
Its amyloid nucleation score is “inactive”.

Which amyloid nucleation score does the source give for EASNCFAIRHFENKFAVETLICWNPAVGLKIHAP here?
The amyloid nucleation score was “inactive”.

With EASNCFAIRHFENKFAVETLICCDVFVVLLNGPL as the sequence, how does the amyloid nucleation score read?
Its amyloid nucleation score is 7.19.

For EASNCFAIRHFENKFAVETLICDISYLCEKFAWC, which amyloid nucleation score is on record?
Its amyloid nucleation score is 6.68.

With EASNCFAIRHFENKFAVETLICVVNKARWTLAWV as the sequence, how does the amyloid nucleation score read?
Its amyloid nucleation score is “inactive”.

Which amyloid nucleation score does the source give for EASNCFAIRHFENKFAVETLICGVVTS here?
The amyloid nucleation score was “inactive”.

Which amyloid nucleation score does the source give for EASNCFAIRHFENKFAVETLICCDKVLANQNVDN here?
The amyloid nucleation score was “inactive”.

Which amyloid nucleation score does the source give for EASNCFAIRHFENKFAVETLICIVTHYYRMTVWC here?
Its amyloid nucleation score is “inactive”.

For EASNCFAIRHFENKFAVETLICRWLVSSASSWLK, which amyloid nucleation score is on record?
Its amyloid nucleation score is “inactive”.

With EASNCFAIRHFENKFAVETLICLGYSRMEAEF as the sequence, how does the amyloid nucleation score read?
Its amyloid nucleation score is 1.75.

With EASNCFAIRHFENKFAVETLICMRRQTRIDVASM as the sequence, how does the amyloid nucleation score read?
Its amyloid nucleation score is “inactive”.

Which amyloid nucleation score does the source give for EASNCFAIRHFENKFAVETLICMRYLLGCLLSVG here?
The amyloid nucleation score was “inactive”.

With EASNCFAIRHFENKFAVETLICMMKGLKRVTD as the sequence, how does the amyloid nucleation score read?
Its amyloid nucleation score is “inactive”.

Which amyloid nucleation score does the source give for EASNCFAIRHFENKFAVETLICTMRS here?
The amyloid nucleation score was “inactive”.

For EASNCFAIRHFENKFAVETLICGPGESQWRCMTE, which amyloid nucleation score is on record?
Its amyloid nucleation score is “inactive”.

With EASNCFAIRHFENKFAVETLICWVYLEFMNQYCT as the sequence, how does the amyloid nucleation score read?
Its amyloid nucleation score is “inactive”.

With EASNCFAIRHFENKFAVETLICVVFVVFRMVHEG as the sequence, how does the amyloid nucleation score read?
Its amyloid nucleation score is “inactive”.

For EASNCFAIRHFENKFAVETLICLTVRRFFEADCL, which amyloid nucleation score is on record?
Its amyloid nucleation score is “inactive”.

With EASNCFAIRHFENKFAVETLICALGDATCSDGVR as the sequence, how does the amyloid nucleation score read?
Its amyloid nucleation score is 1.45.

With EASNCFAIRHFENKFAVETLICVNLSRWETHSDH as the sequence, how does the amyloid nucleation score read?
The amyloid nucleation score was 5.46.

With EASNCFAIRHFENKFAVETLICHVECCSMWSYLG as the sequence, how does the amyloid nucleation score read?
The amyloid nucleation score was 6.48.

With EASNCFAIRHFENKFAVETLICLSVCELRALRRE as the sequence, how does the amyloid nucleation score read?
Its amyloid nucleation score is “inactive”.

For EASNCFAIRHFENKFAVETLICDMWYSACTGLLW, which amyloid nucleation score is on record?
The amyloid nucleation score was -0.345.

Which amyloid nucleation score does the source give for EASNCFAIRHFENKFAVETLICQELSTVQMALYG here?
The amyloid nucleation score was 0.2.

Which amyloid nucleation score does the source give for EASNCFAIRHFENKFAVETLICKRMETNLSRAEQ here?
The amyloid nucleation score was “inactive”.

For EASNCFAIRHFENKFAVETLICEKFDDVAHPREY, which amyloid nucleation score is on record?
Its amyloid nucleation score is “inactive”.

With EASNCFAIRHFENKFAVETLICVLADMSSWWYAE as the sequence, how does the amyloid nucleation score read?
The amyloid nucleation score was -0.25.

For EASNCFAIRHFENKFAVETLICMYGRLYQYCHNI, which amyloid nucleation score is on record?
The amyloid nucleation score was “inactive”.

With EASNCFAIRHFENKFAVETLICWGWSWNLTCRLE as the sequence, how does the amyloid nucleation score read?
Its amyloid nucleation score is “inactive”.

For EASNCFAIRHFENKFAVETLICLYVLRAGLLSLQ, which amyloid nucleation score is on record?
Its amyloid nucleation score is “inactive”.

With EASNCFAIRHFENKFAVETLICYGGMRNSSKVRC as the sequence, how does the amyloid nucleation score read?
The amyloid nucleation score was “inactive”.

For EASNCFAIRHFENKFAVETLICVSWGSLLVSLIR, which amyloid nucleation score is on record?
The amyloid nucleation score was “inactive”.

With EASNCFAIRHFENKFAVETLICLHLSASLSPLRL as the sequence, how does the amyloid nucleation score read?
The amyloid nucleation score was 3.13.

Same assay, conditions: random library (experiment): 2

For EASNCFAIRHFENKFAVETLICIRHFQRYDGFIP, which amyloid nucleation score is on record?
The amyloid nucleation score was 5.68.

With EASNCFAIRHFENKFAVETLICCMDGSWKREKRL as the sequence, how does the amyloid nucleation score read?
The amyloid nucleation score was 4.21.

With EASNCFAIRHFENKFAVETLICRIRVIGFRRVVR as the sequence, how does the amyloid nucleation score read?
Its amyloid nucleation score is “inactive”.

With EASNCFAIRHFENKFAVETLICGSKYRSDWCWGY as the sequence, how does the amyloid nucleation score read?
The amyloid nucleation score was 3.01.

For EASNCFAIRHFENKFAVETLICNCLREERPSFRG, which amyloid nucleation score is on record?
Its amyloid nucleation score is 6.31.

Which amyloid nucleation score does the source give for EASNCFAIRHFENKFAVETLICLPWSSNNEHRGA here?
Its amyloid nucleation score is 7.37.

For EASNCFAIRHFENKFAVETLICEVRYSWYLLLFC, which amyloid nucleation score is on record?
The amyloid nucleation score was “inactive”.

For EASNCFAIRHFENKFAVETLICGYSV, which amyloid nucleation score is on record?
Its amyloid nucleation score is “inactive”.

For EASNCFAIRHFENKFAVETLICYAFSVTVSIIV, which amyloid nucleation score is on record?
The amyloid nucleation score was “inactive”.

Which amyloid nucleation score does the source give for EASNCFAIRHFENKFAVETLICRDVFRQGRMEFC here?
Its amyloid nucleation score is “inactive”.

With EASNCFAIRHFENKFAVETLICTFWKGYIPCDWS as the sequence, how does the amyloid nucleation score read?
Its amyloid nucleation score is “inactive”.

With EASNCFAIRHFENKFAVETLICKNTAVPRKCTKD as the sequence, how does the amyloid nucleation score read?
The amyloid nucleation score was “inactive”.

Which amyloid nucleation score does the source give for EASNCFAIRHFENKFAVETLICLSRES here?
The amyloid nucleation score was 0.616.

Which amyloid nucleation score does the source give for EASNCFAIRHFENKFAVETLICVVLLGIQYIMGP here?
The amyloid nucleation score was “inactive”.

For EASNCFAIRHFENKFAVETLICTFDFLMSCIVFW, which amyloid nucleation score is on record?
Its amyloid nucleation score is “inactive”.

For EASNCFAIRHFENKFAVETLICCVVGQTSLVVLL, which amyloid nucleation score is on record?
Its amyloid nucleation score is 4.18.

Which amyloid nucleation score does the source give for EASNCFAIRHFENKFAVETLICMLVIGTLCCRPL here?
Its amyloid nucleation score is -0.27.

With EASNCFAIRHFENKFAVETLICGNIYAVRGASVV as the sequence, how does the amyloid nucleation score read?
The amyloid nucleation score was 4.82.

With EASNCFAIRHFENKFAVETLICRYAYV as the sequence, how does the amyloid nucleation score read?
Its amyloid nucleation score is 0.741.

Which amyloid nucleation score does the source give for EASNCFAIRHFENKFAVETLICTSSGSRGVVYNM here?
Its amyloid nucleation score is “inactive”.

Which amyloid nucleation score does the source give for EASNCFAIRHFENKFAVETLICELKF here?
Its amyloid nucleation score is 2.63.

Which amyloid nucleation score does the source give for EASNCFAIRHFENKFAVETLICEKNNSWFTCYCG here?
Its amyloid nucleation score is 7.66.

Same assay, conditions: random library (experiment): 3

For EASNCFAIRHFENKFAVETLICGRKLWSRSVPPS, which amyloid nucleation score is on record?
Its amyloid nucleation score is “inactive”.

For EASNCFAIRHFENKFAVETLICGGNDWYHRGFAC, which amyloid nucleation score is on record?
The amyloid nucleation score was “inactive”.

For EASNCFAIRHFENKFAVETLICATNGFSWVRSDW, which amyloid nucleation score is on record?
Its amyloid nucleation score is “inactive”.

With EASNCFAIRHFENKFAVETLICVRLWEATHGVSG as the sequence, how does the amyloid nucleation score read?
The amyloid nucleation score was 2.73.

For EASNCFAIRHFENKFAVETLICIRGFES, which amyloid nucleation score is on record?
Its amyloid nucleation score is “inactive”.

Which amyloid nucleation score does the source give for EASNCFAIRHFENKFAVETLICPHPYCCELNITA here?
The amyloid nucleation score was “inactive”.

Which amyloid nucleation score does the source give for EASNCFAIRHFENKFAVETLICCLDIVLCYRVST here?
Its amyloid nucleation score is 4.24.

With EASNCFAIRHFENKFAVETLICCSVMYRVLEFYL as the sequence, how does the amyloid nucleation score read?
Its amyloid nucleation score is -0.0612.

For EASNCFAIRHFENKFAVETLICLYLSAYFEFCWH, which amyloid nucleation score is on record?
Its amyloid nucleation score is “inactive”.

With EASNCFAIRHFENKFAVETLICGGSCNSHLFLYA as the sequence, how does the amyloid nucleation score read?
Its amyloid nucleation score is “inactive”.

Which amyloid nucleation score does the source give for EASNCFAIRHFENKFAVETLICDVAHRLELLLRV here?
The amyloid nucleation score was “inactive”.

Which amyloid nucleation score does the source give for EASNCFAIRHFENKFAVETLICTPSMDRWRWNW here?
Its amyloid nucleation score is 5.12.

Which amyloid nucleation score does the source give for EASNCFAIRHFENKFAVETLICLMTV here?
Its amyloid nucleation score is “inactive”.

With EASNCFAIRHFENKFAVETLICDA as the sequence, how does the amyloid nucleation score read?
Its amyloid nucleation score is “inactive”.

For EASNCFAIRHFENKFAVETLICTLLEHHGEQFLA, which amyloid nucleation score is on record?
The amyloid nucleation score was “inactive”.

Which amyloid nucleation score does the source give for EASNCFAIRHFENKFAVETLICGKLGIRCKQHVR here?
Its amyloid nucleation score is “inactive”.

For EASNCFAIRHFENKFAVETLICNCEEGCRSVRRA, which amyloid nucleation score is on record?
Its amyloid nucleation score is 8.85.

With EASNCFAIRHFENKFAVETLICFKRDRLALSGYR as the sequence, how does the amyloid nucleation score read?
The amyloid nucleation score was “inactive”.

Which amyloid nucleation score does the source give for EASNCFAIRHFENKFAVETLICLTHNLCVSIG here?
The amyloid nucleation score was 3.95.

With EASNCFAIRHFENKFAVETLICATGEPIRWCREL as the sequence, how does the amyloid nucleation score read?
Its amyloid nucleation score is 3.89.

With EASNCFAIRHFENKFAVETLICWKLSSTMMGRVP as the sequence, how does the amyloid nucleation score read?
Its amyloid nucleation score is 0.798.

Which amyloid nucleation score does the source give for EASNCFAIRHFENKFAVETLICGEPDRMTPRVAK here?
The amyloid nucleation score was “inactive”.

With EASNCFAIRHFENKFAVETLICHTCCNCCNSVVR as the sequence, how does the amyloid nucleation score read?
The amyloid nucleation score was 7.67.

For EASNCFAIRHFENKFAVETLICGHVCSCPVYNRH, which amyloid nucleation score is on record?
The amyloid nucleation score was 8.66.

Which amyloid nucleation score does the source give for EASNCFAIRHFENKFAVETLICNGLASLVTLMEC here?
The amyloid nucleation score was “inactive”.
